Assay results reported in the BET-seq Pho4 binding data (Le et al. 2018).
The list shows a part of the results. Values were computed here from the reads of four pooled replicates and scatter widely.

biological target: T1, Pho4 (S. cerevisiae) (UniProt P07270); experiment: relative binding free energy (BET-seq); higher = weaker binding; conditions: reference: library average
T1 sequence: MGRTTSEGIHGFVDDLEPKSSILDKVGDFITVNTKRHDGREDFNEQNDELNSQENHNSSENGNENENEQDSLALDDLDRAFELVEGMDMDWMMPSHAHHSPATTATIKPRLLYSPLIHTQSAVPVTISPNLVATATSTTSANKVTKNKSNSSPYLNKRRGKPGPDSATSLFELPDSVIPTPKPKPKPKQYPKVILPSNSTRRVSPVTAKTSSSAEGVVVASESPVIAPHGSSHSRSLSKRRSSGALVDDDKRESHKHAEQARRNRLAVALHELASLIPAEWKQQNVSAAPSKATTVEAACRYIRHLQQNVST

Sequence | relative binding free energy [kcal/mol]
AAATTCACGTGATTGT | 0.25
TTGATCACGTGATAGG | 0.15
AGTGACACGTGATAGT | 0.17
ATTTGCACGTGCGGAA | -0.02
AGTTACACGTGAGCGT | 0.16
GTGGGCACGTGGGAAA | -0.12
TGCATCACGTGTGGAT | 0.17
CGGGACACGTGAGTGA | 0.22
CGGTACACGTGTTAGG | 0.1
TGGAGCACGTGGCGTA | -0.04
TTGGACACGTGGAGTC | 0.25
TTTTACACGTGGAGGC | 0.19
TTTCGCACGTGGGGGC | -0.18
GCGGGCACGTGGATTG | 0.07
TTTTACACGTGTTATG | 0.13
AAGGACACGTGGAAGG | -0.03
TTTTACACGTGACGGT | 0.24
CTGTTCACGTGTTGCG | 0.18
TAAGTCACGTGTGACG | 0.11
TTGTCCACGTGTTATT | 0.06
GTGGTCACGTGGTAAG | 0.11
AGGCTCACGTGAGGGG | 0.32
TTACTCACGTGTTATT | -0.03
TGTCTCACGTGTAGTT | 0.15
TTGTTCACGTGATCTA | 0.46
GTTGGCACGTGGTTAT | 0

Sequence | relative binding free energy [kcal/mol]
AAGGGCACGTGAGGAT | 0.08
TAGGTCACGTGGGCGG | -0.09
GTTGGCACGTGGAACT | -0.02
GTTAACACGTGTAGTT | 0.18
AAGCGCACGTGTGGTG | -0.11
TTAAGCACGTGATTTA | -0.02
GTAGTCACGTGGTACG | 0.02
GTGGACACGTGGCTGT | -0.07
GGTACCACGTGTTGTG | 0.01
TTGAACACGTGGTCTG | -0.02
TCTGACACGTGGGATG | -0.09
TTGTTCACGTGAGCGA | 0.2
GTAAGCACGTGGTGAT | -0.18
TACGTCACGTGTAGTT | 0.1
TTTGCCACGTGTGTTA | -0.1
TGTTTCACGTGAGAGA | 0.56
TGGGACACGTGGTTCG | 0.05
AGTCGCACGTGCGTAG | -0.05
GTATTCACGTGAACGG | 0.38
TTCTTCACGTGAGTAT | 0.29
TTTGGCACGTGCTGTA | -0.08
TATAACACGTGAAGTT | 0.29
TTGTGCACGTGGACGA | 0.02
CAGATCACGTGGGTAG | 0.05
CATGGCACGTGATAGT | -0.14
AATGGCACGTGGCTGG | -0.18

Sequence | relative binding free energy [kcal/mol]
GGTGTCACGTGTGCTC | 0.21
CTTGTCACGTGTCGTT | 0.09
GAGGACACGTGAGTGA | 0.3
ATGTTCACGTGAGTGA | 0.44
GATGCCACGTGAGTTG | 0.17
TCGTTCACGTGCAGGG | 0.18
TGGGACACGTGGAGCG | -0.04
GGATCCACGTGGTGGG | -0.03
TGTGTCACGTGCTAAG | -0.09
CTGGGCACGTGTGCAG | -0.12
GTGTGCACGTGACGGT | 0.12
AGTTTCACGTGCGTTG | 0.29
TAACTCACGTGGGTTG | 0.15
GTTACCACGTGGAGTG | 0.08
CGCAGCACGTGGGGGA | -0.15
ATAAGCACGTGAATAG | 0.23
AGTTGCACGTGTTGGA | 0
CAAGCCACGTGGGGGT | -0.19
TGATTCACGTGTCTTG | 0.21
GGGCACACGTGTGGCG | 0.01
AAGTTCACGTGACAGG | 0.24
GAAGGCACGTGGTAAG | -0.03
GGTGGCACGTGCTTAT | -0.17
AAGGTCACGTGTGGAG | 0.28
GGTGTCACGTGTACTG | 0.11
GGGACCACGTGGGGTT | -0.09

Sequence | relative binding free energy [kcal/mol]
CGGTGCACGTGTGCGC | 0.07
TGAGGCACGTGGGACG | -0.21
TATCGCACGTGTTGTC | -0.01
TCGTGCACGTGTGTTA | -0.06
TTTTTCACGTGGAATT | 0.37
ACGGACACGTGGGTGA | -0.08
TGGAACACGTGAGTAT | 0.4
GGCGTCACGTGATGTG | 0.1
TGTTGCACGTGAAGGC | 0.26
GCATTCACGTGATGTT | 0.25
AGTATCACGTGGTATA | 0.02
GTTGCCACGTGAGGTA | 0.04
GGAGGCACGTGGGGCG | -0.15
TAGAGCACGTGTGTGA | -0.04
TTAGTCACGTGGGAGC | -0.01
TTGTCCACGTGGTGTG | 0.06
TTTGGCACGTGCATGC | -0.2
GGTATCACGTGTCCGG | 0.24
TGTGGCACGTGAACGT | 0.17
GTAGGCACGTGGTTAG | -0.03
TTGTTCACGTGTCGTT | 0.25
GGGGGCACGTGGCGGA | -0.15
AGTGACACGTGTGCGG | -0.13
GGAGCCACGTGGGTGC | -0.2
ATGGTCACGTGTCTGA | 0.06
AGCGTCACGTGTGGAT | 0.06

Sequence | relative binding free energy [kcal/mol]
CATGACACGTGTTGAT | 0.04
GCTATCACGTGTTATG | 0.2
AGTATCACGTGTGGCC | 0.07
ATTATCACGTGGATAT | 0.16
TGCGACACGTGGGTTA | -0.18
AGTTGCACGTGGTGTA | -0.23
GTGTTCACGTGGGAGG | 0.28
TCTAACACGTGTGTTT | 0.07
TAAACCACGTGGGGTT | -0.17
TGGGCCACGTGTCATG | -0.13
GGCTACACGTGGTAGT | 0.07
GGTTGCACGTGCAGCG | 0.08
GGATTCACGTGGCTGG | 0.36
GCGGGCACGTGGGATC | -0.12
TGGGTCACGTGTTAGT | 0.15
GTGTGCACGTGTGATC | 0.03
TATGGCACGTGTCGGT | -0.02
ATTCTCACGTGTTAGA | 0.21
ATAATCACGTGGTGGA | 0.11
TGAAGCACGTGTTGTA | -0.05
TTATTCACGTGGGGAT | 0.23
GTATCCACGTGTAGTG | -0.01
AGGTCCACGTGCTGGG | 0
TATTCCACGTGAGGGG | 0.19
GTGTTCACGTGGTATG | 0.26
TGAAGCACGTGAGTCG | 0.17

Sequence | relative binding free energy [kcal/mol]
TAGAACACGTGTTAGT | -0.03
AATCTCACGTGTTGAG | 0.32
CGTGTCACGTGGCATG | -0.04
GGATGCACGTGGTACT | -0.05
TTAGACACGTGTAGTA | -0.19
GTGTACACGTGGATAG | 0.03
ATGGTCACGTGCGCAG | 0.06
GGGCGCACGTGGATTG | -0.07
GGTGACACGTGGAGAA | 0.04
TTTTGCACGTGCTGAA | -0.03
TGCTTCACGTGAGTAT | 0.32
TTGTGCACGTGGTACT | -0.17
ATTAACACGTGGGCAG | -0.08
GTTCTCACGTGTGTAA | 0.37
TATGTCACGTGATTTG | 0.27
GTGTGCACGTGCTATT | -0.12
GGTACCACGTGGGGTT | -0.13
TTTGCCACGTGTCGTG | -0.08
GTTATCACGTGCGGGC | 0.31
TTTTGCACGTGGTTTT | 0.06
AGCATCACGTGGGTCG | -0.01
TAATACACGTGTCGGG | 0.11
AGGCACACGTGGAGTG | -0.05
GAAATCACGTGGTTAT | 0.27
TGTCTCACGTGGTTCT | 0.03
TCCGTCACGTGGGGTT | 0.01

Sequence | relative binding free energy [kcal/mol]
TTGTTCACGTGTTATT | 0.22
GTGAACACGTGTGGCG | -0.04
CAGAACACGTGGTGTG | -0.04
GTTTACACGTGCGTTG | 0.03
TTTAGCACGTGAAATA | 0.15
TATGTCACGTGTAGTA | -0.01
TAGGTCACGTGTGGGG | 0.17
TTCGGCACGTGTTTCG | 0.03
ATATGCACGTGCGGGG | -0.08
GGTTCCACGTGGGGTT | 0.01
TCTATCACGTGTGATG | 0.11
ATAGTCACGTGTTGTG | 0.02
AGGTGCACGTGTCGAT | 0.01
AGTTGCACGTGATTGA | 0.09
GAGGACACGTGTAAGT | 0.18
ATATCCACGTGAGTGG | 0.32
TTGTACACGTGTTTAC | 0.04
TGAGGCACGTGGGGAC | -0.17
TATGTCACGTGTGTCT | 0.17
TTGTCCACGTGGGTCA | -0.11
CTTTTCACGTGATTTT | 0.24
GCGCGCACGTGTAGGG | -0.15
TTGTTCACGTGTGGAA | 0.26
GGGGCCACGTGGGATA | -0.21
AAAAGCACGTGTTGGT | -0.04
GCATGCACGTGGTGGT | -0.09

Sequence | relative binding free energy [kcal/mol]
TGGTTCACGTGGTAAG | 0.27
TTGTACACGTGGCTTA | -0.1
TTATGCACGTGTTGCG | -0.05
TCATGCACGTGCTGTG | -0.07
TTTGTCACGTGACAGG | 0.18
GTCCTCACGTGTGGGT | 0.09
CGTTGCACGTGTGAAG | 0.06
TATATCACGTGTTTAG | 0.15
CATGTCACGTGATTTG | 0.25
TGTGCCACGTGCGGTA | -0.21
AGGCTCACGTGGTTCT | 0.24
GCTGACACGTGGTGGA | 0.04
AAGGGCACGTGTATTT | 0.07
GAGTTCACGTGGATGA | 0.25
TTGGGCACGTGTTGCG | -0.08
TTAGACACGTGGTCGT | -0.07
TTATACACGTGTAGGT | 0.06
GGGGTCACGTGCTTTT | 0.17
ATGAGCACGTGTGAGC | -0.02
GGGTACACGTGTGGAC | 0.16
TTCTGCACGTGATTAT | 0.16
TTTGCCACGTGCGTTG | -0.17
GTCTTCACGTGGTGAG | 0.35
GTATACACGTGATGAG | 0.09
TGTTCCACGTGTTTAG | 0.02
TAGTTCACGTGCGCTG | 0.22

Sequence | relative binding free energy [kcal/mol]
CGGTTCACGTGGTACT | 0.2
GATAACACGTGGGATT | 0.04
GTGAACACGTGTGCTT | 0.14
GATTGCACGTGATAGT | 0.16
GCTGTCACGTGCGGGT | 0.11
GAACGCACGTGGTTGG | -0.05
TAGTGCACGTGAGGCT | 0.23
TTTACCACGTGTTTTG | -0.02
TTTAGCACGTGAATAA | 0.14
ATTATCACGTGTTGTA | 0.07
TTAAGCACGTGTAAGA | 0.01
ATGTTCACGTGTGGCG | 0.17
GGAGTCACGTGGAGGA | 0.13
TATTACACGTGTATAG | 0.07
TTGGTCACGTGAGGAG | 0.31
TGAAACACGTGTGATG | -0.05
GTGAACACGTGGAGTG | 0
AGTGGCACGTGATTTT | 0.1
TATGGCACGTGTAAAT | 0.1
TGTCTCACGTGGGGAA | -0.07
TTATTCACGTGAAGAT | 0.3
CGCGGCACGTGATAGG | -0.04
